# Laboratory results: PubChem BioAssay AID686979 (National Center for Advancing Translational Sciences (NCATS), 2013)
# Several values for one entry are separate records, joined by “and”; a condition that tells them apart may be missing. Identical values can stand only once. About 50,000 (12%) of roughly 420,000 compounds were called active. Inconclusive results, whose numbers are uncertain, are shown with a selection of clear calls. Calls follow the shape of the dose curve; as a rule, active = well fitted inhibition curve with a large enough effect; inconclusive = small, poorly fitted or top-dose-only effect; inactive = flat fitted curve, though single readings scatter. Where the call is inconclusive, the potency comes from a doubtful curve fit. Some compounds were tested as several samples or in several runs, with calls that do not always agree.
# Assay: qHTS for Inhibitors of human tyrosyl-DNA phosphodiesterase 1 (TDP1): qHTS in cells in presence of CPT; also: nearly all actives have a fitted effect of over 55% in size
# Settings: chicken DT40 Tdp1-/-;hTDP1 cells + 20 nM CPT, ATP luminescence, 48 h; series mostly up to 46.2 µM
# In short: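 Chicken DT40 Tdp1-/- cells complemented with human TDP1, 400 cells/well, exposed to compounds plus 20 nM camptothecin for at least 48 h at 37 C; viability read as ATP content by CellTiter-Glo luminescence.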
# Potency is read from the fitted curve at half-maximal effect; tags tell the direction and shape of the fitted curve.
row,SMILES,Potency
1,CCOC(=O)c1ccc(NC(=O)C2CC(=O)N=C(N)S2)cc1 (configuration not stated),inactive
2,Cc1ccc(C)c(N2CCN(C(=O)CN3C(=O)COc4ccc(S(=O)(=O)N5CCCCCC5)cc43)CC2)c1,active: 16.4 µM
3,CCc1nn(CC(=O)NCCC(C)C)c(=O)c2cc3c(OC)cccc3n12,inactive
4,Cc1ccc(C(=O)Nc2ccon2)cc1S(=O)(=O)N1CCCC1,inactive
5,Cc1cc(C)c(Cn2c(C)c(CNCCCc3ccccc3)c(C(=O)O)c2C)c(C)c1,"inconclusive: 4.61 µM [inhibitor, single point]"
6,Cc1ccc(C)c(/C=N/NC(=S)NC(C)C)c1,active: 5.8 µM
7,Cc1ccc(N(C)S(=O)(=O)c2cccc(C(=O)OCC(=O)c3c(N)n(C)c(=O)n(C)c3=O)c2)cc1,"inconclusive: 20.6 µM [inhibitor, single point]"
8,Cc1cc(C)n(Cc2cccc(C(=O)N/N=C/c3cccnc3)c2)n1,inactive
9,Cc1cccc(NC(=O)c2cnn(-c3ccccc3)c2-n2cccc2)c1C,active: 16.4 µM
10,COc1cc2nc(CN(C)Cc3ccc(SC)cc3)[nH]c(=O)c2cc1OC,inactive
11,Cc1nc(N/N=C/c2ccccc2)nc(N(C)c2ccccc2)c1[N+](=O)[O-],inactive
12,CC(C)(C)c1cc2nc(NCc3cccc(Cl)c3)ccn2n1,active: 18.4 µM
13,O=C(Cn1cc(C(F)(F)F)ccc1=O)NC1CCCC1,inactive
14,CCC1CN(C(=O)N2CCC(C(=O)NCc3ccc(C)o3)CC2)c2cc(C)ccc2O1 (configuration not stated),inactive and active: 16.4 µM
15,COc1ccccc1N1N=C(c2cccs2)CC1c1ccccc1 (configuration not stated),"inconclusive: 29.1 µM [inhibitor, single point]"
16,COc1ccc(OC)c(CCNC(=O)CCc2nnc3ccc(N4CCOCC4)nn23)c1,"inconclusive: 25.9 µM [inhibitor, single point]"
17,O=C(C(=O)N1CCN(c2ccccc2)CC1)c1ccc2c(c1)OCO2,inactive
18,Cc1ccc(C(C(=O)NC(C)(C)C)N(CC2CCCO2)C(=O)Cn2nnc(-c3ccc(C)o3)n2)cc1 (configuration not stated),"inconclusive: 35.5 µM [inhibitor, single point]"
19,CCOC(=O)N1CCN(S(=O)(=O)N2CCCC(C(=O)NCc3cccc(OC)c3)C2)CC1 (configuration not stated),"inconclusive: 11.6 µM [inhibitor, partial curve] and inconclusive: 20.6 µM [inhibitor, single point]"
20,CC1(C(=O)Nc2cccc(OC(F)(F)F)c2)Cc2c(-c3cccc(C(F)(F)F)c3)ccnc2O1 (configuration not stated),"inconclusive: 20.6 µM [inhibitor, single point]"
21,COC(=O)c1scc(C)c1NC(=O)CSc1ccc(Cl)cc1,inactive
22,Clc1ccc(-c2ccnc(Oc3cc(Cl)ccc3Cl)n2)cc1,inactive
23,C/C(=N/NC(N)=S)c1ccccc1[N+](=O)[O-],"inconclusive: 23.1 µM [inhibitor, single point]"
24,O=c1c2ccccc2nc(COc2ccccc2)n1/N=C/c1cc([N+](=O)[O-])ccc1O,active: 6.51 µM

row,SMILES,Potency
1,COC(=O)c1ccc(C(NC(=O)OCc2ccccc2)/C(F)=C/[C@@H](C)C(=O)NCc2ccc(-c3ccccc3)cc2)cc1 (some centres not stated),active: 16.4 µM
2,Cc1cc(C=O)c(C)n1-c1ccc(N2CCCC2)c([N+](=O)[O-])c1,"inconclusive: 29.1 µM [inhibitor, single point]"
3,COc1ccc(NC(=O)C(C2CC2)n2c(=O)c(-c3ccccc3)nc3ccccc32)cc1 (configuration not stated),"inconclusive: 29.1 µM [inhibitor, single point]"
4,COCCn1c(=S)[nH]c2cc(C(=O)N3CCN(C4CCCCC4)CC3)ccc2c1=O,"inconclusive: 25.9 µM [inhibitor, single point]"
5,CN(Cc1ccccc1)C(=O)CCSc1nc(-c2ccc3c(c2)OCO3)cc(C(F)(F)F)n1,"inconclusive: 29.1 µM [inhibitor, single point]"
6,CCc1ccc(C(=O)COC(=O)c2ccco2)cc1,inactive
7,CC(=O)N1c2ccc(S(=O)(=O)NCCC(=O)NCCc3ccc(C)cc3)cc2CC1C (configuration not stated),active: 20.6 µM
8,C/C=C/CSc1nc2c(c(=O)[nH]c(=O)n2C)n1CCC,inactive
9,Cc1nc2c(C(=O)NCc3ccccc3Cl)cnn2c(C)c1Cc1c(F)cccc1Cl,active: 8.2 µM
10,Cc1ccc(N(Cc2ccccc2)C(=O)CSC(C)C(=O)Nc2cc(C)on2)cc1 (configuration not stated),"inconclusive: 29.1 µM [inhibitor, single point]"
11,CCOC(=O)C1CCN(C(=O)c2sc3nc(-c4ccccc4)cn3c2C)CC1,"inconclusive: 23.1 µM [inhibitor, partial curve]"
12,CC(C)CCCN1CCN=C1Nc1ccccc1,"inconclusive: 23.1 µM [inhibitor, single point]"
13,O=C(Nc1cccc(C(F)(F)F)c1)Oc1ccc(Cl)c2cccnc12,active: 23.1 µM
14,Cc1ccc(-n2nc3c(=O)n(CCCC(=O)NCc4ccco4)nc(C)c3c2C)cc1,"inconclusive: 29.1 µM [inhibitor, single point]"
15,C=CCNC(=S)NNC(=O)COc1ccc2cc(Br)ccc2c1,"inconclusive: 29.1 µM [inhibitor, single point]"
16,Cc1c(C)c2ccc(OCC(=O)N[C@@H](Cc3ccccc3)C(=O)O)cc2oc1=O,"inconclusive: 23.1 µM [inhibitor, single point]"
17,CCCCNC(=O)CSc1nc2ccc(Nc3nc(N4CCOCC4)nc(N4CCOCC4)n3)cc2s1,active: 18.4 µM
18,CC(=O)N1CCCc2cc(S(=O)(=O)N3CCC(C(=O)NCCC(C)C)CC3)ccc21,inactive
19,NC(=O)COC(=O)c1c2c(nc3ccccc13)CCCCC2,inactive
20,Cc1cc(C)c(C)c(S(=O)(=O)NC(C)C(=O)O)c1C (configuration not stated),inactive
21,O=C(C(Cc1ccccc1)N1C(=O)c2ccccc2C1=O)N1CCc2ccccc21 (configuration not stated),inactive
22,OC(c1ccc(F)cc1)c1nc(-c2ccc(Cl)cc2)cs1 (configuration not stated),"inconclusive: 20.6 µM [inhibitor, single point]"
23,Cc1cccc(-n2cc(-c3ccccc3)[nH]c2=S)c1,"inconclusive: 29.1 µM [inhibitor, single point]"
